# Laboratory results taken from the supplement of paper PMC8728848.
# This is one part of the list.
# B1: Siglec 6 (Homo sapiens), O43699 (protein)
# chain: MLPLLLPLLWAGALAQERRFQLEGPESLTVQEGLCVLVPCRLPTTLPASYYGYGYWFLEGADVPVATNDPDEEVQEETRGRFHLLWDPRRKNCSLSIRDARRRDNAAYFFRLKSKWMKYGYTSSKLSVRVMALTHRPNISIPGTLESGHPSNLTCSVPWVCEQGTPPIFSWMSAAPTSLGPRTTQSSVLTITPRPQDHSTNLTCQVTFPGAGVTMERTIQLNVSYAPQKVAISIFQGNSAAFKILQNTSSLPVLEGQALRLLCDADGNPPAHLSWFQGFPALNATPISNTGVLELPQVGSAEEGDFTCRAQHPLGSLQISLSLFVHWKPEGRAGGVLGAVWGASITTLVFLCVCFIFRVKTRRKKAAQPVQNTDDVNPVMVSGSRGHQHQFQTGIVSDHPAEAGPISEDEQELHYAVLHFHKVQPQEPKVTDTEYSEIKIHK
# Legend:
# Test in all cases: glycan array binding signal (z-score within array); higher = stronger binding
# Conditions in all cases: glycan notation: IUPAC condensed, linker removed
# [1] = target: GlcNAc(b1-2)Gal(b1-3)GlcNAc
# Summary of the method: (§1)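 Columns mapping to the same glycan were averaged after glycan names were converted to IUPAC-condensed notation. The data come from 3228 arrays in the Consortium for Functional Glycomics database, limited to those with an available protein sequence. Binding is reported as a within-array Z-score averaged across arrays of one protein sequence and across linkers.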
# [2] = target: GlcNAc(b1-2)Man(a1-3)[GlcNAc(b1-2)Man(a1-6)]Man(b1-4)GlcNAc(b1-4)GlcNAc
# Summary of the method: as §1
# [3] = target: GlcNAc(b1-3)Gal
# Summary of the method: as §1
# [4] = target: GlcNAc(b1-3)Gal(b1-3)GalNAc
# Summary of the method: as §1
# [5] = target: GlcNAc(b1-3)Gal(b1-4)Glc
# Summary of the method: as §1
# [6] = target: GlcNAc(b1-3)Gal(b1-4)GlcNAc
# Summary of the method: as §1
# [7] = target: GlcNAc(b1-3)Gal(b1-4)GlcNAc(b1-3)Gal(b1-4)GlcNAc
# Summary of the method: as §1
# [8] = target: GlcNAc(b1-3)GalNAc
# Summary of the method: as §1
# [9] = target: GlcNAc(b1-3)[GlcNAc(b1-4)][GlcNAc(b1-6)]GlcNAc
# Summary of the method: as §1
# [10] = target: GlcNAc(b1-3)[GlcNAc(b1-6)]Gal(b1-4)GlcNAc
# Summary of the method: as §1
# [11] = target: GlcNAc(b1-3)[GlcNAc(b1-6)]GlcNAc
# Summary of the method: as §1
# [12] = target: GlcNAc(b1-4)Gal(b1-4)GlcNAc
# Summary of the method: as §1
# [13] = target: GlcNAc(b1-4)GlcNAc(b1-4)GlcNAc
# Summary of the method: as §1
# [14] = target: GlcNAc(b1-4)GlcNAc(b1-4)GlcNAc(b1-4)GlcNAc(b1-4)GlcNAc
# Summary of the method: as §1
# [15] = target: GlcNAc(b1-4)GlcNAc(b1-4)GlcNAc(b1-4)GlcNAc(b1-4)GlcNAc(b1-4)GlcNAc
# Summary of the method: as §1
# [16] = target: GlcNAc(b1-4)[GlcNAc(b1-6)]GalNAc
# Summary of the method: as §1
# [17] = target: GlcNAc(b1-6)Gal(b1-4)GlcNAc
# Summary of the method: as §1
# [18] = target: GlcNAc(b1-6)GalNAc
# Summary of the method: as §1
# [19] = target: Kdn(a2-3)Gal(b1-3)GlcNAc
# Summary of the method: as §1
# [20] = target: Kdn(a2-3)Gal(b1-4)GlcNAc
# Summary of the method: as §1
# [21] = target: Man(a1-2)Man(a1-2)Man(a1-3)Man
# Summary of the method: as §1
# [22] = target: Man(a1-2)Man(a1-2)Man(a1-3)[Man(a1-2)Man(a1-3)[Man(a1-2)Man(a1-6)]Man(a1-6)]Man(b1-4)GlcNAc(b1-4)GlcNAc
# Summary of the method: as §1
# [23] = target: Man(a1-2)Man(a1-2)Man(a1-3)[Man(a1-2)Man(a1-6)[Man(a1-3)]Man(a1-6)]Man(b1-4)GlcNAc(b1-4)GlcNAc
# Summary of the method: as §1
# [24] = target: Man(a1-2)Man(a1-2)Man(a1-6)[Man(a1-3)]Man
# Summary of the method: as §1
# [25] = target: Man(a1-2)Man(a1-3)Man
# Summary of the method: as §1
# [26] = target: Man(a1-2)Man(a1-3)[Man(a1-2)Man(a1-6)]Man
# Summary of the method: as §1
# [27] = target: Man(a1-2)Man(a1-3)[Man(a1-3)[Man(a1-6)]Man(a1-6)]Man(b1-4)GlcNAc(b1-4)GlcNAc
# Summary of the method: as §1
# [28] = target: Man(a1-2)Man(a1-3)[Man(a1-6)]Man(a1-6)[Man(a1-2)Man(a1-3)]Man(b1-4)GlcNAc(b1-4)GlcNAc
# Summary of the method: as §1
# [29] = target: Man(a1-3)[Man(a1-6)]Man
# Summary of the method: as §1
# [30] = target: Man(a1-3)[Man(a1-6)]Man(a1-6)[Man(a1-3)]Man(b1-4)GlcNAc(b1-4)GlcNAc
# Summary of the method: as §1
# [31] = target: Man(a1-3)[Man(a1-6)]Man(b1-4)GlcNAc(b1-4)GlcNAc
# Summary of the method: as §1
# [32] = target: Man(b1-4)GlcNAc
# Summary of the method: as §1
# [33] = target: Neu5Ac(a2-3)Gal
# Summary of the method: as §1
# [34] = target: Neu5Ac(a2-3)Gal(b1-3)GalNAc
# Summary of the method: as §1
# [35] = target: Neu5Ac(a2-3)Gal(b1-3)GalNAc(b1-3)Gal(a1-4)Gal(b1-4)Glc
# Summary of the method: as §1
# [36] = target: Neu5Ac(a2-3)Gal(b1-3)GalNAc(b1-4)[Neu5Ac(a2-3)]Gal(b1-4)Glc
# Summary of the method: as §1
# [37] = target: Neu5Ac(a2-3)Gal(b1-3)GalNAc6S
# Summary of the method: as §1
# [38] = target: Neu5Ac(a2-3)Gal(b1-3)GlcNAc
# Summary of the method: as §1
# [39] = target: Neu5Ac(a2-3)Gal(b1-3)GlcNAc(b1-3)Gal(b1-4)GlcNAc
# Summary of the method: as §1
# [40] = target: Neu5Ac(a2-3)Gal(b1-3)GlcNAc6S
# Summary of the method: as §1
# [41] = target: Neu5Ac(a2-3)Gal(b1-3)[Fuc(a1-4)]GlcNAc
# Summary of the method: as §1
# [42] = target: Neu5Ac(a2-3)Gal(b1-3)[Fuc(a1-4)]GlcNAc(b1-3)Gal(b1-4)[Fuc(a1-3)]GlcNAc
# Summary of the method: as §1
# [43] = target: Neu5Ac(a2-3)Gal(b1-3)[Neu5Ac(a2-3)Gal(b1-4)]GlcNAc
# Summary of the method: as §1
# [44] = target: Neu5Ac(a2-3)Gal(b1-3)[Neu5Ac(a2-6)]GalNAc
# Summary of the method: as §1
# [45] = target: Neu5Ac(a2-3)Gal(b1-4)Glc
# Summary of the method: as §1
binder,measurement,setting,value
B1,glycan array binding signal (z-score),[1],1.16
same,glycan array binding signal (z-score),[2],-0.115
same,glycan array binding signal (z-score),[3],-0.334
same,glycan array binding signal (z-score),[4],-0.324
same,glycan array binding signal (z-score),[5],-0.515
same,glycan array binding signal (z-score),[6],0.424
same,glycan array binding signal (z-score),[7],-0.441
same,glycan array binding signal (z-score),[8],-0.357
same,glycan array binding signal (z-score),[9],-0.12
same,glycan array binding signal (z-score),[10],-0.362
same,glycan array binding signal (z-score),[11],-0.433
same,glycan array binding signal (z-score),[12],-0.111
same,glycan array binding signal (z-score),[13],-0.378
same,glycan array binding signal (z-score),[14],-0.063
same,glycan array binding signal (z-score),[15],-0.321
same,glycan array binding signal (z-score),[16],-0.382
same,glycan array binding signal (z-score),[17],-0.459
same,glycan array binding signal (z-score),[18],-0.454
same,glycan array binding signal (z-score),[19],-0.474
same,glycan array binding signal (z-score),[20],-0.395
same,glycan array binding signal (z-score),[21],-0.148
same,glycan array binding signal (z-score),[22],-0.32
same,glycan array binding signal (z-score),[23],-0.537
same,glycan array binding signal (z-score),[24],-0.41
same,glycan array binding signal (z-score),[25],0.114
same,glycan array binding signal (z-score),[26],-0.281
same,glycan array binding signal (z-score),[27],-0.141
same,glycan array binding signal (z-score),[28],-0.209
same,glycan array binding signal (z-score),[29],-0.208
same,glycan array binding signal (z-score),[30],-0.265
same,glycan array binding signal (z-score),[31],-0.276
same,glycan array binding signal (z-score),[32],-0.385
same,glycan array binding signal (z-score),[33],-0.464
same,glycan array binding signal (z-score),[34],-0.164
same,glycan array binding signal (z-score),[35],0.476
same,glycan array binding signal (z-score),[36],-0.36
same,glycan array binding signal (z-score),[37],-0.099
same,glycan array binding signal (z-score),[38],-0.151
same,glycan array binding signal (z-score),[39],-0.167
same,glycan array binding signal (z-score),[40],-0.367
same,glycan array binding signal (z-score),[41],-0.566
same,glycan array binding signal (z-score),[42],-0.38
same,glycan array binding signal (z-score),[43],-0.33
same,glycan array binding signal (z-score),[44],-0.317
same,glycan array binding signal (z-score),[45],-0.332
